{
  "source": "PubChem BioAssay AID485360",
  "about": "(National Center for Advancing Translational Sciences (NCATS), 2010)",
  "note": "In all, about 230,000 compounds went through this assay and about 1,500 (0.65%) were called active. Inconclusive results, whose numbers are uncertain, are shown with a selection of clear calls. The call rests on the fitted dose curve; in most records, active means well fitted inhibition curve with a large enough effect; inconclusive means small, poorly fitted or top-dose-only effect; inactive means no such curve, though single readings can be large or run the other way. Potencies beside an inconclusive call are fits to weak or partial responses and may not hold up. On the % scale 0 is the no-effect control and ±100 the full control effect; potency means the concentration at half of the fitted maximal effect; tags describe the fitted curve by direction and shape.",
  "data": [
    {"molecular_target": "Lethal(3)malignant brain tumor-like protein 1 (Homo sapiens) (UniProt Q9Y468)", "experiment": "qHTS Assay for the Inhibitors of L3MBTL1; further: nearly all actives have a fitted effect of over 60% in size", "conditions": "AlphaScreen L3MBTL1–H3K9me1 peptide binding; activity, negative = inhibition: at 57.1 µM (top of the series)", "summary_of_the_method": "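AlphaScreen proximity signal between nickel-chelate acceptor and streptavidin donor beads (final 10 ug/mL) reports binding of 50 nM L3MBTL1 to 75 nM biotin-H3 K9me1 peptide; complex incubated with compounds 30 min at room temperature; cefsulodin titration as control.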", "values": [
      {"smiles": "COc1cc(NS(=O)(=O)c2ccc(NC(=S)NC(=O)/C=C/c3ccc(OC)c(OC)c3)cc2)ncn1", "activity, negative = inhibition": "inactive: 3.92%"},
      {"smiles": "CCN(CC)S(=O)(=O)c1ccc(N2CCCC2)c(NC(=O)C2=COCCO2)c1", "activity, negative = inhibition": "inactive: 10.9%"},
      {"smiles": "Cc1cc(Sc2nc(NC(C)C)nc(NC(C)C)n2)nc(Cl)n1", "Potency": "inconclusive: 1.26 µM [inhibitor, full curve, poor fit]"},
      {"smiles": "CCOC(=O)c1c(C)oc2c1c(C=NCCC(=O)O)c(O)c1ccccc12", "activity, negative = inhibition": "inactive: 16.1%"},
      {"smiles": "CCOc1ccc(N=c2scc(-c3ccc(OC)cc3)n2CCO)cc1", "Potency": "inconclusive: 10 µM [inhibitor, partial curve]"},
      {"smiles": "Nc1nonc1-c1nc2ccccc2n1CC(=O)N/N=C/c1ccc(-c2cccc(C(=O)O)c2)o1", "Potency": "inconclusive: 31.6 µM [inhibitor, single point]"},
      {"smiles": "COc1ccc(/C(C)=N/Nc2nc3ccccc3nc2C)cc1", "Potency": "inconclusive: 10 µM [inhibitor, partial curve]"},
      {"smiles": "Cc1ccc(-n2nc3ccc(NC(=O)/C=C/c4ccco4)cc3n2)cc1", "Potency": "inconclusive: 14.1 µM [inhibitor, partial curve]"},
      {"smiles": "CC1CCN(C(=O)COc2ccc(Nc3ccccc3)cc2)CC1", "Potency": "inconclusive: 39.8 µM [inhibitor, single point]"},
      {"smiles": "O=C(O)c1ccccc1C1=Nc2ccc(O)cc2Oc2cc(O)ccc21", "Potency": "inconclusive: 39.8 µM [inhibitor, single point]"},
      {"smiles": "Cc1cc(C(F)(F)F)nc(SCc2ccc(C(=O)O)o2)n1", "Potency": "inconclusive: 39.8 µM [inhibitor, single point]"},
      {"smiles": "CCN(CC)CCNC(=O)c1ccc(NC(=O)c2ccc(F)cc2F)cc1", "Potency": "inconclusive: 8.91 µM [inhibitor, partial curve, poor fit]"},
      {"smiles": "O=C1c2c(O)cccc2Cc2cccc(O)c21", "Potency": "inconclusive: 1.41 µM [inhibitor, full curve, poor fit]"},
      {"smiles": "CN(C)c1ccc(C(CN)c2c[nH]c3ccccc23)cc1", "note": "(configuration not stated)", "Potency": "inconclusive: 1.26 µM [inhibitor, partial curve, poor fit]"},
      {"smiles": "CC(C)(C)c1ccc2c(c1)C(=O)c1ccccc1C2=O", "Potency": "inconclusive: 28.2 µM [inhibitor, single point]"},
      {"smiles": "CN(C)c1cccc(C(=O)OCC(=O)Nc2nccs2)c1", "Potency": "inconclusive: 20 µM [inhibitor, single point]"},
      {"smiles": "Cc1ccc(OCCC(=O)OC(C)C(=O)Nc2ccc(Cl)cn2)cc1", "note": "(configuration not stated)", "Potency": "inconclusive: 0.708 µM [inhibitor, single point]"},
      {"smiles": "Cc1cc(C)cc(NC(=O)CCc2nc3sc4c(c3c(=O)[nH]2)CCCC4)c1", "Potency": "inconclusive: 28.2 µM [inhibitor, single point]"},
      {"smiles": "CC1=C(C(=O)Nc2ccccc2)C(c2ccco2)C(C#N)=C(SCC(=O)OC(C)C)N1", "note": "(configuration not stated)", "activity, negative = inhibition": "inactive: -1.72%"},
      {"smiles": "COc1ccc2nc3cc(Cl)ccc3c(Nc3cc(C(C)C)c(O)cc3C)c2c1", "Potency": "inconclusive: 3.98 µM [inhibitor, partial curve]"},
      {"smiles": "COc1ccc([N+](=O)[O-])cc1N(CC(O)CN1CCCCC1)S(=O)(=O)c1ccccc1", "note": "(configuration not stated)", "activity, negative = inhibition": "inactive: -8.95%"},
      {"smiles": "Cc1c(C(=O)O)c(C(=O)O)nc2ccc(N3CCOCC3)cc12", "Potency": "inconclusive: 39.8 µM [inhibitor, single point]"},
      {"smiles": "CC1CCN(CC(=O)Nc2ccc(C(=O)N3CCCCC3)cc2)CC1", "activity, negative = inhibition": "inactive: -2.95%"},
      {"smiles": "N=c1c(-c2nc3ccccc3[nH]2)cc(C(=O)c2ccco2)nn1-c1ccccc1", "Potency": "inconclusive: 39.8 µM [inhibitor, single point]"},
      {"smiles": "O=C1/C(=C\\c2ccco2)SC(=S)N1c1ccc(O)cc1", "Potency": "inconclusive: 31.6 µM [inhibitor, single point]"},
      {"smiles": "CN(C)c1ccc(/C=N\\Nc2ccccn2)cc1", "Potency": "inconclusive: 39.8 µM [inhibitor, single point]"},
      {"smiles": "O=C1CCCC(O)=C1N=Nc1ccc(Cl)c(Cl)c1", "Potency": "inconclusive: 12.6 µM [inhibitor, partial curve]"},
      {"smiles": "Cc1nnc(SCC(=O)N2CCN(S(=O)(=O)c3ccccc3)CC2)s1", "Potency": "inconclusive: 0.141 µM [inhibitor, full curve, poor fit]"},
      {"smiles": "C/C(=N\\Nc1ccc(C(=O)O)cc1)c1ccc(Br)cc1", "Potency": "inconclusive: 31.6 µM [inhibitor, single point]"},
      {"smiles": "Cc1cccc(C2CC3(CC(C)(C)NC(=S)N3)Oc3cc(O)ccc32)c1", "note": "(configuration not stated)", "Potency": "inconclusive: 25.1 µM [inhibitor, partial curve]"},
      {"smiles": "O=C(Nc1nnc(C2CC2)s1)C1Cc2ccccc2CN1S(=O)(=O)c1cccs1", "note": "(configuration not stated)", "Potency": "inconclusive: 22.4 µM [inhibitor, partial curve]"},
      {"smiles": "CCN(CC)S(=O)(=O)c1cc(-c2nn(C)c(=O)c3ccccc23)ccc1C", "activity, negative = inhibition": "inactive: -20.9%"},
      {"smiles": "CCCN1CCC(NC(=O)Cc2ccc(C)cc2)CC1", "Potency": "inconclusive: 6.31 µM [inhibitor, single point]"},
      {"smiles": "O=C(O)COc1ccc(Br)cc1/C=N/O", "Potency": "inconclusive: 31.6 µM [inhibitor, single point]"},
      {"smiles": "CCC(CC)=N/N=C/c1c(O)n(CC)c2cc(C3=NNC(=O)CC3)ccc12", "Potency": "inconclusive: 10 µM [inhibitor, full curve, poor fit]"},
      {"smiles": "CC/C(=N\\Nc1ccccc1[N+](=O)[O-])c1ccc(O)cc1", "Potency": "active: 25.1 µM"},
      {"smiles": "Cc1ccc(C)c(N2C(=N)S/C(=C\\c3ccc(-c4ccccc4C(=O)O)o3)C2=O)c1", "Potency": "inconclusive: 31.6 µM [inhibitor, single point]"},
      {"smiles": "CCSc1nnc(-c2cccc(S(=O)(=O)N(C)C)c2)n1-c1cc(OC)ccc1OC", "activity, negative = inhibition": "inactive: 0.0308%"},
      {"smiles": "O=C(c1ccc(S(=O)(=O)N2CCOCC2)cc1)N1CCN(c2cccc(Cl)c2)CC1", "Potency": "inconclusive: 3.98 µM [inhibitor, single point]"},
      {"smiles": "Cc1ccc(S(=O)(=O)N(CC(=O)NCc2ccco2)C2CCCCC2)cc1", "Potency": "inconclusive: 5.01 µM [inhibitor, single point]"},
      {"smiles": "CCCOC(=O)c1cc(NC(=O)/C=C/c2ccccc2)ccc1O", "Potency": "inconclusive: 0.282 µM [inhibitor, full curve, poor fit]"},
      {"smiles": "COc1cc2c(C#N)c(N3CCN(c4ccccc4OC)CC3)nc(N)c2c(N)n1", "Potency": "inconclusive: 0.794 µM [inhibitor, full curve, poor fit]"},
      {"smiles": "COC(OC)c1ccc(C#N)c(=O)[nH]1", "activity, negative = inhibition": "inactive: 0.934%"},
      {"smiles": "COc1cc(/C=C/C(=O)OCC(=O)Nc2cccc(Oc3ccccc3)c2)ccc1O", "Potency": "inconclusive: 39.8 µM [inhibitor, single point]"},
      {"smiles": "Cc1cc2ccccc2cc1CN1CCOCC1", "activity, negative = inhibition": "inactive: 8.92%"},
      {"smiles": "COc1ccccc1NC(=O)CCN1CCN(C)CC1", "Potency": "inconclusive: 0.112 µM [inhibitor, full curve, poor fit]"},
      {"smiles": "COc1cc(/C=N/NC(=O)CCNC(=O)c2ccccc2Cl)ccc1O", "Potency": "inconclusive: 44.7 µM [inhibitor, single point]"},
      {"smiles": "CC(=O)Nc1cc(C(=O)O)ccc1S(=O)(=O)c1ccc(C)cc1", "activity, negative = inhibition": "inactive: 4.15%"},
      {"smiles": "Cc1cccc(OCCCC(=O)Nc2ccc(S(=O)(=O)Nc3onc(C)c3C)cc2)c1C", "Potency": "inconclusive: 6.31 µM [inhibitor, partial curve]"},
      {"smiles": "CN(C)CCCN1c2ccccc2Sc2ccc(C(F)(F)F)cc21", "activity, negative = inhibition": "inactive: -3.37%"},
      {"smiles": "COc1cc(/C=N/n2c(C)n[nH]c2=S)ccc1OCc1ccccc1", "Potency": "inconclusive: 6.31 µM [inhibitor, single point]"},
      {"smiles": "C#CCOCCOCCOCCNc1nc(N2CCN(C(=O)Cn3cc(CCCN=C(N)N)nn3)CC2)nc(N2CCN(C(=O)[C@H]([C@@H](C)O)n3cc(CCCCN)nn3)CC2)n1", "activity, negative = inhibition": "inactive: 8.91%"},
      {"smiles": "COC(=O)c1cc2c(ccn2-c2ccc(F)cc2)n1Cc1ccc(OC(C)=O)cc1", "Potency": "inconclusive: 7.08 µM [inhibitor, single point]"},
      {"smiles": "O=c1oc(-c2ccco2)nc2sc3c(c12)CCCC3", "Potency": "inconclusive: 11.2 µM [inhibitor, partial curve]"},
      {"smiles": "CC1(C)Cc2c(C#N)c(N3CCN(C(=O)c4ccccc4Cl)CC3)nc(-c3ccco3)c2CS1", "Potency": "inconclusive: 25.1 µM [inhibitor, single point]"},
      {"smiles": "COc1ccc(OC)c(C(=O)c2c(C)oc3cc([N+](=O)[O-])c(O)c([N+](=O)[O-])c23)c1", "Potency": "inconclusive: 39.8 µM [inhibitor, single point]"},
      {"smiles": "COc1ccc(-c2ccc(=O)n(Cc3ccccc3)n2)cc1", "activity, negative = inhibition": "inactive: 1.24%"},
      {"smiles": "CC1CCN(C(=O)COC(=O)/C=C/c2ccc(Br)o2)CC1", "Potency": "inconclusive: 5.62 µM [inhibitor, single point]"},
      {"smiles": "O=C(NCC(F)(F)F)Nc1cccnc1", "Potency": "inconclusive: 7.08 µM [inhibitor, single point]"},
      {"smiles": "CC(C)CC(=O)c1c[nH]c(C(=O)N2CCN(Cc3ccccc3)CC2)c1", "Potency": "inconclusive: 3.55 µM [inhibitor, full curve, poor fit]"},
      {"smiles": "CC(=O)c1ccc2noc(-c3ccccc3)c2c1", "activity, negative = inhibition": "inactive: -4.74%"},
      {"smiles": "CN1CCc2c(sc(NC(=O)C3CCCN3S(=O)(=O)c3ccc(Cl)s3)c2C(N)=O)C1", "note": "(configuration not stated)", "activity, negative = inhibition": "inactive: -11.4%"},
      {"smiles": "CCOc1ccc(OCCCC(=O)N2CCN(S(=O)(=O)c3ccc(Cl)cc3)CC2)cc1", "Potency": "active: 31.6 µM"},
      {"smiles": "COCCNC(=O)c1cc2nc3c(c(C(F)(F)F)n2n1)CCc1ccccc1-3", "Potency": "inconclusive: 5.62 µM [inhibitor, single point]"},
      {"smiles": "Cc1[nH][nH]c(=O)c1C(c1ccc(-c2cccc(C(=O)O)c2)o1)c1c(C)[nH][nH]c1=O", "Potency": "active: 25.1 µM"},
      {"smiles": "O=C1C2C(C(=O)N1/N=C/c1cc([N+](=O)[O-])c(O)cc1O)C1C=CC2C12CC2", "note": "(configuration not stated)", "Potency": "active: 31.6 µM"},
      {"smiles": "O=c1[nH]c2cc3c(cc2cc1CN(Cc1cccs1)Cc1nnnn1Cc1ccco1)OCCO3", "Potency": "inconclusive: 31.6 µM [inhibitor, single point]"}
    ]}
  ]
}
